Experimental data published in PubChem BioAssay AID1030 (National Center for Advancing Translational Sciences (NCATS), 2008).
The whole screen tested about 220,000 compounds, of which about 16,000 (7.3%) were called active. Inconclusive results, whose numbers are uncertain, are shown with a selection of clear calls. Calls come from the whole dose curve; as a rule, active = well fitted inhibition curve with a large enough effect (not every such curve was filed as active); inconclusive = small, poorly fitted or top-dose-only effect, or another doubt; inactive = no such curve, though single readings can be large or run the other way. Potencies of inconclusive entries are doubtful fits and often do not repeat.

Biological target: Aldehyde dehydrogenase 1A1 (Homo sapiens) (UniProt P00352)
Chain of UniProt P00352 (P00352 whole entry, looked up): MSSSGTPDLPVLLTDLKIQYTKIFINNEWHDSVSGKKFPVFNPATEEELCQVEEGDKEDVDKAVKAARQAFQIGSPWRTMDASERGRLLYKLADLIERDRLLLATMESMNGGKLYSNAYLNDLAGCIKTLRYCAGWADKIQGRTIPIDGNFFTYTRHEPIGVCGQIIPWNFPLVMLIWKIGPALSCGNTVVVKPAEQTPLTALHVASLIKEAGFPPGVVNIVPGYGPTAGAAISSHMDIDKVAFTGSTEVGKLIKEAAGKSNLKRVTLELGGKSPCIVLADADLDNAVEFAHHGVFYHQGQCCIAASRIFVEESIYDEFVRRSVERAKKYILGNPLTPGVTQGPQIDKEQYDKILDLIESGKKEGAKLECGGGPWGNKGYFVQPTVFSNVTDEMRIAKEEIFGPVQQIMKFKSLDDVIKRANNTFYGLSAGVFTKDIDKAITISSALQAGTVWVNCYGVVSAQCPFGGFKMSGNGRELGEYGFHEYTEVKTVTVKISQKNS
Assay: qHTS Assay for Inhibitors of Aldehyde Dehydrogenase 1 (ALDH1A1)
Details: Purified ALDH1A1, NADH fluorescence, propionaldehyde substrate; series mostly up to 75.3 µM
Potency is the fitted concentration of half-maximal effect; tags give direction and shape of the fitted curve.

Potency, inconclusive:
O=c1cnc2cnc(N3CCNCC3)nc2n1Cc1ccc(F)cc1 28.2 µM [inhibitor, partial curve]
NC(=NCc1ccc(Cl)c(Cl)c1)NC(=O)c1nc(Cl)c(N)nc1N 31.6 µM [inhibitor, partial curve]
Cc1c(Cc2ccccc2)c(=O)oc2c(C)c(OCC(=O)Nc3ccc(C#N)cc3)ccc12 39.8 µM [inhibitor, single point]
COc1ccc(-c2c3c(nc4sc5c(=O)[nH]c(C)nc5c24)CCC3)cc1 20 µM [inhibitor, partial curve]
Cc1ccc(Cn2nnnc2CN2CCC(O)(c3ccccc3F)CC2)cc1 15.8 µM [inhibitor, partial curve]
CN(C(=O)CSC1=Nc2ccccc2C2=NC(c3ccccc3)C(=O)N12)C1CCCCC1 (centres undefined) 31.6 µM [inhibitor, partial curve]
COc1cc(/C=N/n2nnnc2Nc2ccccc2)cc(OC)c1OC 25.1 µM [inhibitor, single point]
CCOC(=O)c1[nH]c2ccc(Br)cc2c1NC(=O)CCN1CCCC(C)(C)C1 22.4 µM [inhibitor, partial curve]
CCCCS(=O)(=O)/C=C\C1C2C=CC(C2)C1S(=O)(=O)CCCC (centres undefined) 17.8 µM [inhibitor, single point]
ClC(Cl)c1nnc(-c2ccccc2)c(-c2c[nH]c3ccccc23)n1 31.6 µM [inhibitor, single point]
c1ccc(-c2csc(-c3nc4ccccc4[nH]3)n2)cc1 31.6 µM [inhibitor, partial curve]
CCOC(=O)c1cc(C)sc1NC(=S)Nc1ccccc1 10 µM [inhibitor, partial curve, poor fit]
Cc1cc(C)n2nc(NCc3ccccc3)nc2n1 23.8 µM [inhibitor, partial curve]
Cc1ccc(NC(=O)C(=O)NCCN2CCN(S(=O)(=O)c3ccccc3)CC2)cc1C 39.8 µM [inhibitor, single point]
CN1C(=O)/C(=C\C(=O)c2cccs2)c2ccccc21 20 µM [inhibitor, partial curve]
COC(=O)CN(c1ccccc1)S(=O)(=O)c1cc(Br)ccc1OC 7.08 µM [inhibitor, full curve, poor fit]
O=C(CSc1ccccc1)Nc1ccc(-c2nc3ccccc3[nH]2)cc1 35.5 µM [inhibitor, single point]
Cc1c(NC(=O)c2ccco2)cccc1-c1nc2cccnc2s1 35.5 µM [inhibitor, single point]
COc1ccc2[nH]c(C(=O)Nc3cccc(C)n3)cc2c1 37.7 µM [inhibitor, single point]
Cc1ccc(NC(=O)c2cc(S(=O)(=O)N3CCCCC3)ccc2N2CCOCC2)cc1F 35.5 µM [inhibitor, single point]
CC(C(=O)NCC1CCCO1)N(C(=O)c1snc(C(N)=O)c1N)c1cccc(F)c1 (centres undefined) 39.8 µM [inhibitor, single point]
Cc1nc(NC2CCCCC2)c2nc(-c3ccccc3)n(CCCN(C)C)c2n1 31.6 µM [inhibitor, partial curve]
CCCS(=O)(=O)N1CCN(C(=O)c2ccc(-c3ccccc3)cc2)CC1 39.8 µM [inhibitor, single point]
O=C(Nc1ccccc1-c1ccccc1)c1cccc(C(F)(F)F)c1 31.6 µM [inhibitor, single point]
CCNC(=O)NC(=O)C(C)OC(=O)c1oc2ccc(OC)cc2c1C (centres undefined) 28.2 µM [inhibitor, partial curve]
COc1ccc(N2CCN(CCCNC(=O)CC3Oc4ccc(C)cc4NC3=O)CC2)cc1 (centres undefined) 44.7 µM [inhibitor, single point]
COc1ccc(NC(=O)C2=C(C)Nc3ncnn3C2c2ccccc2C(F)(F)F)c(OC)c1 (centres undefined) 39.8 µM [inhibitor, single point]
CC(C)c1nnc(NC(=O)CCC(=O)N2CCN(C3CCCCC3)CC2)s1 2.24 µM [inhibitor, partial curve]
CCN(CC)C(=O)c1sc(NC(=O)Cc2ccccc2)c(C#N)c1C 2 µM [inhibitor, full curve]
COc1ccc(C(=O)N2CCCc3ccccc32)cc1 35.5 µM [inhibitor, single point]
O=C(CS(=O)(=O)c1cn(CC(=O)N2CCOCC2)c2ccccc12)Nc1ccccc1 39.8 µM [inhibitor, single point]

Potency, inactive:
CN(C)c1cc[n+](/C(C(=S)Nc2ccc(SC(F)F)cc2)=C(/[O-])c2ccccc2)cc1
COc1cc(/C=C/CN2CCN(CCC(C)C)C(CCO)C2)ccc1O (centres undefined)
COc1ccc(C(C(=O)NC2CCCC2)N2CCc3ccccc32)cc1 (centres undefined)
COc1cc(C2CC(=O)c3cnc(NC(C)=O)nc3C2)cc(OC)c1OC (centres undefined)
CCc1nc2ccccc2c(C(=O)OCC(=O)C(C)(C)C)c1C
COc1ccc(CCNC(=O)c2ccc(CNS(=O)(=O)c3cc(C)ccc3C)cc2)cc1OC
CN1C(=O)C(O)(CC(=O)c2ccc3c(c2)OCO3)c2ccccc21 (centres undefined)
COc1ccc(C(=O)N=S2CCN(C(=O)c3ccc(Cl)cc3)CC2)cc1
Cn1c(=O)[nH]c(=O)c2c1nc(N1CCNCC1)n2Cc1cccc2ccccc12
Cn1cc(Br)c(C(=O)NNC(=O)c2cccc(Br)c2)n1

Potency, active:
CCN(CC)c1ccc(/C=N/NC(=O)c2ccco2)cc1 10 µM
CCn1c(=O)cc(OCC(=O)N2CCN(C(=O)c3ccco3)CC2)c2ccccc21 17.8 µM
CC(NC(=O)c1sc2cc([N+](=O)[O-])ccc2c1Cl)C(C)(C)C (centres undefined) 0.562 µM
